# In all, about 310,000 compounds went through this assay and about 14,000 (4.5%) showed an effect of 50% or more. The effect is printed as a negative number. The list shows a part of the results.
# Target: human ether-à-go-go-related gene (hERG) potassium channel (human, UniProt Q12809)
# Assay: primary screen, population patch clamp on CHO cells stably expressing hERG
# 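Further: peak tail current of the secondary pulse compared with the same well before compound.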
# human ether-à-go-go-related gene (hERG) potassium channel, sequence (Q12809 whole entry, looked up): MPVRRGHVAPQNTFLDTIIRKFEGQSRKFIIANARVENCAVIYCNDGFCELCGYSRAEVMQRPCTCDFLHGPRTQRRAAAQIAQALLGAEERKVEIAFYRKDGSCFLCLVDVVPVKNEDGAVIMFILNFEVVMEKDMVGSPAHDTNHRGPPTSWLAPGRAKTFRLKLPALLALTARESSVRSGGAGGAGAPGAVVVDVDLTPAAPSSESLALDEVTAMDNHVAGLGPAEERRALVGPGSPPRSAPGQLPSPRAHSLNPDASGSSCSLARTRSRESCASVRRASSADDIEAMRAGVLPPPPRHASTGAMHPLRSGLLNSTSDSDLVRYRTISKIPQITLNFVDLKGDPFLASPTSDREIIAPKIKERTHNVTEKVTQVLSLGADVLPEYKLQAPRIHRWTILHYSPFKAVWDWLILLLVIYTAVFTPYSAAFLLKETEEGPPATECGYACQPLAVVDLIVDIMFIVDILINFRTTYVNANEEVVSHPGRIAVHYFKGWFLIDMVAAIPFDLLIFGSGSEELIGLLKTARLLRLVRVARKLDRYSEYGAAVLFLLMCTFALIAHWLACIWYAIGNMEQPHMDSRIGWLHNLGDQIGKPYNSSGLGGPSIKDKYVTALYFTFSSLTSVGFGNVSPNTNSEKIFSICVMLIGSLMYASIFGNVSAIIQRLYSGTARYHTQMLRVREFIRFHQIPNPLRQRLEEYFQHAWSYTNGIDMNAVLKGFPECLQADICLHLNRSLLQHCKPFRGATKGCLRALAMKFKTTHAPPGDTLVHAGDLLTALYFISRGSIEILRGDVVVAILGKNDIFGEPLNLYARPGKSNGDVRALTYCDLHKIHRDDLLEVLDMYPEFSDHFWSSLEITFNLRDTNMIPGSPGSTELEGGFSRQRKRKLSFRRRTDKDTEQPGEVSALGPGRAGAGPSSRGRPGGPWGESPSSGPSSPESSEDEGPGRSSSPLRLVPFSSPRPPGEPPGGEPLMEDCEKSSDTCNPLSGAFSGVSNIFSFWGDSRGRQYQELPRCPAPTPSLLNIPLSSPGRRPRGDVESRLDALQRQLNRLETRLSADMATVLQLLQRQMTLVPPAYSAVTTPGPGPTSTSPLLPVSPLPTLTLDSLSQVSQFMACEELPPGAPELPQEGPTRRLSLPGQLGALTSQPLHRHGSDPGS
row,SMILES,"hERG current change (%, negative = inhibition) at 10uM [%]"
1,O=C(Cc1ccccc1Cl)NC1(O)C(=O)c2ccccc2C1=O,12.5
2,NC(=O)C[C@@H]1NC(=O)CNC(=O)c2cc([N+](=O)[O-])cc(I)c2NCCC(C(N)=O)NC1=O (stereo partly shown),5.47
3,O=[N+]([O-])c1ccc2c(c1)C(O)n1nc(-c3ccc(Cl)cc3Cl)nc1S2 (stereo not shown),17.4
4,CC(=O)Nc1ccc(CN2CCN(CCC(C)C)C(CCO)C2)cc1 (stereo not shown),19.7
5,Cc1cccc(OCc2n[nH]c(=S)n2C2CCCCC2)c1,12
6,Cc1ccc2cc(CCNC(=O)CCCc3ccccc3)c(=O)[nH]c2c1C,4.88
7,Cc1ccc(S(=O)(=O)N(Cc2cc3ccccc3[nH]c2=O)c2cccc(C)c2)cc1,7.79
8,NS(=O)(=O)c1ccc(CNS(=O)(=O)c2ccc(Cl)nc2)cc1,13.6
9,O=C(CS(=O)(=O)c1ccc2ccccc2c1)Nc1ccccc1Cl,5.27
10,O=C(c1ccc(F)c(S(=O)(=O)N2CCOCC2)c1)N1CCc2ccccc21,-21.2
11,Cn1c(CN2CCCCC2)nc2cc(NC(=O)c3ccccc3Cl)ccc21,-8.74
12,CCn1c(=N)n(CC(O)COc2cccc(C)c2)c2ccccc21.Cl (stereo not shown),-58.6
13,Cc1cc(C(=O)N2CCc3ccccc32)n(-c2ccccc2)n1,-3.22
14,CN(Cc1ccccc1NCC(=O)Nc1ccccc1C#N)C1CCCCC1,-33
15,COC(=O)c1ccc(S(=O)(=O)N2CCC(O)CC2)n1C,9.79
16,Cc1ccc(CNc2oc(-c3ccco3)nc2S(=O)(=O)c2ccccc2)cc1,-14.3
17,Cc1noc(C)c1C(=O)N1CCN(c2ccccc2O)CC1,22.4
18,CCN(CC)S(=O)(=O)c1cccc(C(=O)N[C@H](C(=O)NCc2ccccc2F)C(C)C)c1,-7.93
19,CCN(CC)C(=O)c1ccc(C(=O)Nc2ccc(F)cc2)cc1,-8.59
20,O=C(NCc1ccc(Cl)cc1)c1n[nH]c([N+](=O)[O-])c1Cl,-14.8
21,CCc1ccc(Oc2coc3cc(O)ccc3c2=O)cc1,3.61
22,CC(NC(=O)c1cccs1)c1nnc(SCc2ccc(Cl)cc2Cl)n1C (stereo not shown),-24.8

row,SMILES,"hERG current change (%, negative = inhibition) at 10uM [%]"
1,Cc1ccc(N(C(=O)C2CCC(=O)N2)C2(C(=O)NC3CCCCC3)CCCCC2)cc1 (stereo not shown),-0.0893
2,CC(C)c1ccc(NS(=O)(=O)c2ccc3c(c2)NC(=O)CO3)cc1,13.3
3,O=C1C(=O)c2cccc3cccc1c23,11.9
4,COc1ccc(OC)c(C2C(C(C)=O)=C(O)C(=O)N2c2ccc(O)cc2)c1 (stereo not shown),13.3
5,NC(=O)C1(N2CCCCC2)CCN(Cc2ccc(F)cc2)CC1,-6.92
6,O=C1CCN1C1(C(=O)NC2CCCCC2)CCCC1,8.6
7,CC(=O)c1c(N2CCN(c3cccc(Cl)c3)CC2)nc(=S)n(-c2ccccc2)c1C,-68.8
8,COc1ccc(Cn2c(=S)[nH]c3cc(C(=O)NCc4cccnc4)ccc3c2=O)cc1,12.3
9,CC(C)(C)NC(=S)N/N=C\c1ccc(-c2ccc([N+](=O)[O-])cc2)o1,2.48
10,Cc1ccc(CN2CCN(/N=C/c3ccc(C)s3)CC2)cc1,-39.9
11,COc1cccc(/C=N/Nc2ccc(Cl)nn2)c1OC,15.6
12,Cc1ccc(S(=O)(=O)N2[C@@H](c3cccc(Cl)c3)C(C(=O)O)=CC[C@H]2c2cccc(Cl)c2)cc1,3.05
13,COc1cc([N+](=O)[O-])c2ncsc2c1,19.3
14,Cc1ccccc1OCCC(=O)Nc1ccccc1C(=O)NC1CC1,10.2
15,CC(NC(=O)C1(S(=O)(=O)c2ccc(Cl)cc2)CC1)c1ccccc1 (stereo not shown),-17
16,COc1ccc(C(=O)Nc2ccccc2N2CCOCC2)cc1Br,-30.6
17,CCN(CC)C(=O)c1ccc2c(=O)n(Cc3ccc4c(c3)OCO4)c(=S)[nH]c2c1,8.29
18,Cc1nnc(SCC(=O)Nc2ccc(N3CCOCC3)cc2)n1-c1ccccc1,-14.5
19,CCn1c(SC(=O)NC2CCCCC2)nnc1-c1cccs1,-1.02
20,O=C(NC1CCCC1)C1CCCN(S(=O)(=O)c2ccc(F)cc2)C1 (stereo not shown),16.2
21,O=C1OC(CCl)CN1Cc1c(Cl)cccc1Cl (stereo not shown),-0.492
22,N#C[C@@H]1[C@@H]2C(=O)N(c3ccc4c(c3)OCCO4)C(=O)[C@@H]2C2c3ccccc3C=CN21 (stereo partly shown),-4.52

row,SMILES,"hERG current change (%, negative = inhibition) at 10uM [%]"
1,FC(F)(F)c1cc(N2CCN(Cc3ccccc3)CC2)c2ccccc2n1,10.9
2,CCOC(=O)c1c(NC(=O)C2C3C=CC(C3)C2C(=O)O)sc2c1CCCC2 (stereo not shown),19.1
3,CCCOc1cccc(-c2cc(C(=O)NN)c3ccccc3n2)c1,-36.1
4,COc1ccc(CNCC2COc3ccccc3O2)cc1.O=C(O)C(=O)O (stereo not shown),-17.8
5,Cc1ccc(NC(=O)c2cc(-c3ccc(C)o3)nc3ccccc23)nc1,2.33
6,Cc1ccc(/C=N\NC(=O)COc2ccc(C)cc2[N+](=O)[O-])cc1,-9.9
7,CCOC(=O)C1CCN(C(=O)COc2ccc(N(C)S(=O)(=O)c3ccc(OCC)cc3)cc2)CC1,-4.08
8,NCCCNC(=O)Cn1c(=O)c2c3c(sc2n(Cc2ccccc2)c1=O)CCCC3,15.1
9,Cc1ccc(NC(=O)C2CC(=O)N/C(=N/N=C/c3ccco3)S2)cc1C (stereo not shown),-6.98
10,CCOC(=O)C1CCCCN1C(=O)CCc1c(C)nc2cc(-c3ccccc3)nn2c1C (stereo not shown),-64.4
11,O=C(Nc1cccc(Cl)c1)Nc1cc(S(=O)(=O)N2CCOCC2)ccc1N1CCCC1,-38.9
12,COc1ccccc1NC(=O)NC1(C(=O)NCC2CCCO2)CCCCC1 (stereo not shown),15.7
13,CC1(C)CCC(=O)N2CC[C@H]3C[C@H](OC(=O)Nc4ccc(Br)cc4)C[C@@H]1[C@H]32,4.11
14,O=C(CN1C(=O)COc2ccccc2C1=O)c1ccc2c(c1)OCCO2,15.6
15,Oc1ccc(-c2cc(-c3ccc(O)cc3)nc(-c3ccccc3)n2)cc1,20.1
16,COc1ccccc1NC(=O)c1ccc(N2CC3CC(C2)c2cccc(=O)n2C3)c(NC(=O)c2cccnc2)c1 (stereo not shown),6.33
17,COc1ccc(NC2=C3CCCC=C3N(c3ccc(OC)cc3)C2=O)cc1,15.3
18,COc1ccc(-c2nc(CSCC(=O)N3CCN(C)CC3)c(C)o2)cc1OC,11.7
19,COc1ccccc1C1C(C(N)=O)=C(C)Nc2nc(-c3ccc(Cl)cc3)nn21 (stereo not shown),-10.4
20,COc1ccc(S(=O)(=O)N2CCN(C(=O)CN3C(=O)NC4(CCCC4)C3=O)CC2)cc1,13.9
21,N/C(=N\OC(=O)c1ccco1)c1ccc(Cl)cc1,15.3
22,COc1cc(C)c(C(=O)Oc2cc(C)c(C(=O)O)c(O)c2C)c(O)c1C,-0.636

row,SMILES,"hERG current change (%, negative = inhibition) at 10uM [%]"
1,Cn1c(CCC(=O)Nc2ccccc2F)nnc1SCC(=O)Nc1ccccc1Cl,0.612
2,O=C(Nc1cc(C(F)(F)F)ccc1F)C1CCC1,-5.16
3,Cn1cc(-c2nnnn2-c2ccccc2)c(=O)c2ccccc21,-8.94
4,O=c1c2c(nc3cc(-c4cccc(Cl)c4)[nH]n13)CCCC2,8.99
5,CN(c1ccc(OCC(=O)N2CCN(c3ccc(F)cc3)CC2)cc1)S(=O)(=O)c1cccs1,-58.7
6,O=C(Nc1cccc(S(=O)(=O)N2CCOCC2)c1)c1cn(-c2ccccc2)nc1-c1ccccc1,-5.73
7,O=C(N/N=C/c1cccnc1)C1CC1(c1ccccc1)c1ccccc1 (stereo not shown),-55.6
8,COc1ccc2c(=O)c(-c3cnn(-c4ccccc4)c3)c(C)oc2c1,0.374
9,COc1ccc(CCNC(=O)c2cc(-c3cc(Cl)cc(Cl)c3)oc2C)cc1,-9.71
10,C=CCNC(=O)c1ccc(C2SCC(=O)N2Cc2ccccc2)cc1 (stereo not shown),6.11
11,Cc1cc(N2CCOCC2)nc2ccc(NC(=S)NCCC(C)C)cc12,-64.1
12,O=C(O)c1ccc(/C=N/Nc2ncc(Cl)cc2Cl)cc1,18
13,CCOc1ccc(C(CC(=O)O)NC(=O)COc2ccccc2)cc1OC (stereo not shown),13.2
14,Cc1cc(NC(=O)COC(=O)C2CCC(=O)N2)c([N+](=O)[O-])cc1C (stereo not shown),15.4
15,CC(=O)n1nc(-c2ccc(Cl)cc2)nc1NCc1ccco1,5.77
16,O=C(O)c1cccc(CN2C(=O)SC(Nc3ccccc3)C2=O)c1 (stereo not shown),2.16
17,O=C(Nc1cccc(Cl)c1)Nc1nnc(-c2ccccc2)o1,3.18
18,CCOC(=O)c1csc(NC(=O)COc2ccc(Cl)cc2Cl)n1,-12.6
19,CSCCC(NS(=O)(=O)c1ccc(Cl)cc1)C(=O)OCC(=O)c1c(C)[nH]c2ccccc12 (stereo not shown),4.09

# — PMC4336329 (PLoS ONE, 2015)
